{
  "source": "PubChem BioAssay AID463173",
  "about": "(ICCB-Longwood Screening Facility, Harvard Medical School, 2010)",
  "note": "The whole screen tested about 52,000 compounds, of which about 4,300 (8.3%) were called active. No stated cut-off is given here; in the data, active means survival mostly below about 52% (no sharp cut-off); inactive means mostly above about 56%. Some of the results follow.",
  "data": [
    {"system": "DeltatarO mutant", "assay": "S. aureus survival, RN4220 and DeltatarO strains – OD600, teichoic acid synthesis inhibitors, primary screen (AID 463173)", "details": "S. aureus RN4220 wild type/DeltatarO growth, OD600, 18 h, hits give low values, screened at 18.75 µg/mL (by protocol)", "values": [
      {"smiles": "Cc1cc(C)c2nc(NC(=O)c3ccc(S(=O)(=O)N4CCC(C)CC4)cc3)sc2c1", "survival": "inactive: 105%"},
      {"smiles": "CCc1ccc2nc(SCC(=O)N3CC(=O)Nc4ccccc43)c(C#N)cc2c1", "survival": "inactive: 107%"},
      {"smiles": "COc1ccc(NC(=O)C2(c3ccc(OC)cc3)CCOCC2)cc1", "survival": "inactive: 92%"},
      {"smiles": "CCOC(=O)N1CCc2c(sc3c2c(=O)n(Cc2ccccc2)c(=O)n3Cc2ccc(C)cc2)C1", "survival": "inactive: 79%"},
      {"smiles": "Cc1cc(=O)[nH]c(NCCO)n1", "survival": "inactive: 92%"},
      {"smiles": "COc1ccc(CCNC(=O)CCCn2c(SCC(N)=O)nc3cc4c(cc3c2=O)OCO4)cc1OC", "survival": "inactive: 72%"},
      {"smiles": "COC(=O)C12CC3CC(CC(C(=O)OC)(C1)C3=O)C2=O", "survival": "inactive: 116%"},
      {"smiles": "COc1ccc(CNC(=O)C2=C(C)C(=O)OC23CCN(C(C)=O)CC3)cc1", "survival": "inactive: 89%"},
      {"smiles": "CSc1ccc(CNC(=O)CCc2c(C)nn(-c3ccc(N4CCCC4)nn3)c2C)cc1", "survival": "inactive: 66%"},
      {"smiles": "CC1CCN(c2oc(-c3ccc(COc4ccc(Cl)cc4)o3)nc2C#N)CC1", "survival": "inactive: 81%"},
      {"smiles": "CCCCOc1ccccc1C(=O)Nc1onc2c1CCCC2", "survival": "inactive: 55%"},
      {"smiles": "CCc1ccc(-c2nc(CSCC(=O)N3CCN(c4ccc(F)cc4)CC3)c(C)o2)cc1", "survival": "inactive: 73%"},
      {"smiles": "Cc1ccc(NC(=O)C2CCCN(c3cnccn3)C2)c(C)c1", "note": "(stereo not given)", "survival": "inactive: 78%"},
      {"smiles": "CC(C)(CO)NC(=O)c1cc(-c2ccc(Cl)cc2Cl)on1", "survival": "inactive: 94%"},
      {"smiles": "CCc1ccccc1NC(=O)c1cc2c(Cl)nc3ccccc3c2s1", "survival": "active: 42%"},
      {"smiles": "O=C(Oc1ccccc1)c1ccc(-n2cnnn2)cc1", "survival": "inactive: 100%"},
      {"smiles": "COC(=O)c1ccc(CSc2nnc(-c3ccccc3)o2)o1", "survival": "inactive: 76%"},
      {"smiles": "CCOC(=O)c1cc(-c2ccccc2)n(-c2cccc(C(=O)N(C)c3ccc(C)cc3)c2)c1C", "survival": "inactive: 80%"},
      {"smiles": "CN1CCN(Cc2nc(N)nc(Nc3ccccc3)n2)CC1", "survival": "inactive: 70%"},
      {"smiles": "CC(C)C1Oc2ccccc2N(CC(=O)N(CCCN2CCOCC2)Cc2ccc(F)cc2)C1=O", "note": "(stereo not given)", "survival": "inactive: 112%"},
      {"smiles": "Fc1ccc(N2CCN(Cc3cccn3-c3nnc(N4CCN(C5CCCCC5)CC4)s3)CC2)cc1", "survival": "inactive: 94%"},
      {"smiles": "COc1ccccc1N=c1scc(-c2ccc(S(=O)(=O)N3CCCC3)cc2)n1C", "survival": "inactive: 74%"},
      {"smiles": "O=C(O)CCC(=O)Nc1nc2ccccc2s1", "survival": "inactive: 91%"},
      {"smiles": "Cc1nc2c(c(C)nn2-c2ccccc2)c(C)c1CCC(=O)NCCc1ccc(Cl)cc1", "survival": "inactive: 93%"},
      {"smiles": "COc1cccc(NC(=O)N2CCN(C(=O)c3nsc4ccccc34)CC2)c1", "survival": "inactive: 88%"},
      {"smiles": "COc1ccccc1CNC(=O)CCNS(=O)(=O)c1cccc2nsnc12", "survival": "inactive: 64%"},
      {"smiles": "COc1cc(C2NC(=O)c3c(sc4c3CCN(C)C4)N2)ccc1OC(=O)c1ccccc1", "note": "(stereo not given)", "survival": "inactive: 55%"},
      {"smiles": "Cc1cccc(C)c1NC(=O)CCS(=O)(=O)c1cccc2nonc12", "survival": "inactive: 74%"},
      {"smiles": "COC(=O)c1ccc(-c2nc3ccc(C)cc3o2)cc1", "survival": "inactive: 102%"},
      {"smiles": "CCOC(=O)c1ccc(NC2=CC(c3ccc(F)cc3)N(c3ccc(C(=O)OCC)cc3)C2=O)cc1", "note": "(stereo not given)", "survival": "inactive: 66%"},
      {"smiles": "CCOc1ccccc1NC(=O)c1cc2c(=O)n(Cc3cccnc3)ccc2nc1C", "survival": "inactive: 64%"},
      {"smiles": "CCCOc1cccc(C(=O)Nc2ccc(-c3cc4ccccc4oc3=O)c(C)c2)c1", "survival": "inactive: 73%"},
      {"smiles": "O=C(Cc1ccccc1)NN1C(=O)CSC1=S", "survival": "inactive: 71%"},
      {"smiles": "Cc1ccccc1Cn1c(SCc2ccc(C(=O)NC3CCCC3)cc2)nc2ccncc21", "survival": "inactive: 66%"},
      {"smiles": "CC(=O)Nc1ccc(Nc2ncnc3c2c(-c2ccccc2)cn3-c2ccc(C)c(Cl)c2)cc1", "survival": "inactive: 68%"},
      {"smiles": "COc1ccc(C2C(C(=O)Nc3ccccc3)=C(C)Nc3nc(-c4ccccc4Cl)nn32)cc1OC", "note": "(stereo not given)", "survival": "inactive: 50%"},
      {"smiles": "CCOCCCNc1nc2cc(OC)c(OC)cc2c2nc(-c3ccccc3)nn12", "survival": "active: 44%"},
      {"smiles": "Cc1ccc(NC(=O)Cn2c(=O)n(CCC(=O)NCc3ccccc3Cl)c(=O)c3ccccc32)c(C)c1", "survival": "inactive: 102%"},
      {"smiles": "CC(C)OC(=O)CCC1(C(=O)O)CCC(=O)NC1", "note": "(stereo not given)", "survival": "inactive: 88%"},
      {"smiles": "Cc1cccc(NS(=O)(=O)c2ccc3nc(-c4ccccc4)[nH]c3c2)c1C", "survival": "inactive: 109%"},
      {"smiles": "O=C(Nc1ccc2nc(SCCOc3ccccc3)sc2c1)c1ccc2c(c1)OCO2", "survival": "inactive: 83%"},
      {"smiles": "Clc1ccccc1Nc1ncnc2c1nc1n2CCCCC1", "survival": "active: 8%"},
      {"smiles": "Cc1ccc2nc(N3CCN(c4ccccc4F)CC3)c3nnnn3c2c1", "survival": "inactive: 87%"},
      {"smiles": "COc1ccc(CC(=O)NCc2ccc3c(c2)CCN3C(=O)c2cccc(C)c2)cc1", "survival": "active: -4%"},
      {"smiles": "Cc1ccc(-n2cnc3cc(C(=O)NCc4ccccc4Cl)ccc32)c(C)c1", "survival": "active: 37%"},
      {"smiles": "CCCOc1cccc(C2c3c(oc4ccc(F)cc4c3=O)C(=O)N2Cc2ccc3c(c2)OCO3)c1", "note": "(stereo not given)", "survival": "inactive: 66%"},
      {"smiles": "Cc1nc(-n2nc(C)c(Cc3ccc4c(c3)OCO4)c2C)sc1C(=O)Nc1ccc(Cl)cc1", "survival": "inactive: 95%"},
      {"smiles": "Cc1cccc(Cn2cccc2CNS(=O)(=O)c2ccc(C)c(C)c2)c1", "survival": "inactive: 82%"},
      {"smiles": "CSc1ccc(-c2ccc3c(c2)OCCO3)nn1", "survival": "inactive: 91%"},
      {"smiles": "CCCCN(Cc1ccco1)C(=O)Cn1ncc2c([nH]c3ccccc32)c1=O", "survival": "inactive: 144%"},
      {"smiles": "CN1CCSc2ccc(C(=O)NCc3ccccc3)cc21", "survival": "inactive: 67%"},
      {"smiles": "O=C(c1ccco1)n1nc(-c2ccc(Cl)cc2)nc1NCc1ccc(F)cc1", "survival": "inactive: 80%"},
      {"smiles": "COc1ccc2c(c1)cc1c(=O)n(CC(=O)NCCc3ccccc3)nc(C)n12", "survival": "inactive: 73%"},
      {"smiles": "CCOC(=O)Cc1ccc(NC(=O)N2CC(C)Oc3ccc(Cl)cc32)cc1", "note": "(stereo not given)", "survival": "inactive: 55%"},
      {"smiles": "COc1cc2nc(NCc3ccccc3)n3nc(-c4ccccc4)nc3c2cc1OC", "survival": "active: 47%"},
      {"smiles": "O=C(Nc1cccc(Br)c1)c1cc(-c2ccc3c(c2)OCCO3)on1", "survival": "inactive: 47%"},
      {"smiles": "CC(C)NS(=O)(=O)c1ccc(N2C(=O)c3ccccc3C2=O)cc1", "survival": "inactive: 96%"},
      {"smiles": "C=CCN(CC=C)C(=O)CN1C(=O)c2ccccc2C1=O", "survival": "inactive: 68%"},
      {"smiles": "COc1cc2[nH]c(=O)n(CCCCCC(=O)N3CCN(c4ccc(Cl)cc4)CC3)c(=O)c2cc1OC", "survival": "inactive: 67%"},
      {"smiles": "Cc1ccc(C(=O)CSc2nc3ccccc3c(=O)n2Cc2ccco2)cc1", "survival": "inactive: 85%"},
      {"smiles": "Cc1cccc(Cn2c(=O)n(CC3CCC(C(=O)N4CCC(C)CC4)CC3)c(=O)c3sccc32)c1", "note": "(stereo not given)", "survival": "inactive: 75%"},
      {"smiles": "Cc1nc2cc(-c3ccccc3)nn2c(C)c1CCC(=O)NCc1cccc(Cl)c1", "survival": "inactive: 43%"},
      {"smiles": "Cc1ccc(CNC(=O)CN(c2cc(C)cc(C)c2)S(=O)(=O)c2c(C)noc2C)cc1", "survival": "inactive: 84%"},
      {"smiles": "COc1ccc(CNC(=O)CCc2c(C)c3cc4c(C)coc4cc3oc2=O)cc1", "survival": "inactive: 75%"},
      {"smiles": "COc1ccc(CNC(=O)c2nc(S(=O)(=O)Cc3ccccc3)ncc2Cl)cc1", "survival": "active: 18%"},
      {"smiles": "Cc1cccc(NC(=O)/C(=C\\c2ccco2)NC(=O)c2cccs2)c1", "survival": "inactive: 84%"},
      {"smiles": "Cc1ccc(-n2nc3c(=O)n(CC(=O)NCc4ccco4)nc(C)c3c2C)cc1", "survival": "inactive: 75%"},
      {"smiles": "Cc1ccc(-n2c(=O)c3ccc(C(=O)NCc4ccco4)cc3n(Cc3ccc(Cl)cc3)c2=O)cc1", "survival": "inactive: 77%"},
      {"smiles": "Cc1ccccc1CNCCSc1nnnn1-c1ccccc1", "survival": "inactive: 89%"},
      {"smiles": "CCOC(=O)N1CCN(Cc2nc3cc(NC(=O)c4ccccc4OC)ccc3n2C(C)C)CC1", "survival": "inactive: 80%"},
      {"smiles": "COc1ccc(S(=O)(=O)N2CCC(NC(=O)c3ccccc3)CC2)cc1", "survival": "inactive: 103%"},
      {"smiles": "Cc1ccc2c(c1)N(CC(=O)NCCCN1CCCCC1C)C(=O)c1cccnc1O2", "note": "(stereo not given)", "survival": "inactive: 69%"},
      {"smiles": "COc1ccc(-n2c(=O)c3ccc(C(=O)NCc4ccc(C)cc4)cc3n(Cc3ccc(C)cc3)c2=O)cc1", "survival": "inactive: 84%"},
      {"smiles": "COc1ccc(Oc2nc3c(C)cccn3c(=O)c2/C=C(\\C#N)c2nc3ccccc3[nH]2)cc1", "survival": "inactive: 82%"},
      {"smiles": "CCc1ccc2ncc3c(-c4ccc(C)cc4)nn(CC(=O)Nc4ccc(C)cc4)c3c2c1", "survival": "inactive: 55%"},
      {"smiles": "Cc1cc(C)c(NC(=O)Cn2c(=O)n(-c3ccc(F)cc3)c(=O)c3c(C)c(C(=O)N(C)C)sc32)c(C)c1", "survival": "inactive: 67%"},
      {"smiles": "O=C(Nc1ccccc1O)c1cccc(S(=O)(=O)Nc2ccccc2O)c1", "survival": "inactive: 95%"},
      {"smiles": "COC(=O)c1cc2occc2n1Cc1nc(-c2cccc(Br)c2)oc1C", "survival": "inactive: 80%"},
      {"smiles": "Cc1cc(NC(=O)CC(C)C)c(=O)n(Cc2ccccc2F)c1", "survival": "inactive: 104%"},
      {"smiles": "COc1ccc(-c2nc3ccccc3o2)cc1N", "survival": "inactive: 72%"},
      {"smiles": "Cc1nc2nc(SCC(=O)N(Cc3ccccc3)C(C)C)nn2c(C)c1Cc1ccccc1Cl", "survival": "inactive: 49%"},
      {"smiles": "CSc1ccc(CCNc2ncnc3onc(-c4ccc(Cl)cc4)c23)cc1", "survival": "inactive: 67%"},
      {"smiles": "Cc1cc(C)c2sc(N3CCN(C(=O)C4CC4)CC3)nc2c1", "survival": "inactive: 126%"},
      {"smiles": "Cc1ccc(-n2c3c(cc(C(=O)NCc4ccco4)c2=O)C(=O)CCC3)cc1", "survival": "inactive: 96%"},
      {"smiles": "CCc1ccc(CNC(=O)CSCc2cnn(-c3ccccc3)c2-n2cccc2)cc1", "survival": "inactive: 65%"},
      {"smiles": "Cc1ccc(Cn2c(=O)c3ccccc3n3c(-c4ccccc4)nnc23)cc1", "survival": "inactive: 86%"},
      {"smiles": "COc1ccc(C2CC(=O)N3CN(C4CCCCC4)CSC3=C2C#N)cc1", "note": "(stereo not given)", "survival": "inactive: 123%"},
      {"smiles": "CCOC(=O)C1=C(C)N(C)C(c2ccccc2)(C(F)(F)F)NC1=O", "note": "(stereo not given)", "survival": "inactive: 99%"},
      {"smiles": "COc1ccc(NC(=O)CCCS(=O)(=O)c2nc(-c3ccc(OC)c(OC)c3)cc(C(F)(F)F)n2)cc1OC", "survival": "inactive: 80%"},
      {"smiles": "Cc1ccc(OCC(=O)Nc2ccc3nc(SCC(=O)N4CCCC4)sc3c2)cc1C", "survival": "inactive: 74%"}
    ]}
  ]
}
